Laboratory results: PMC4336329 (PLoS ONE, 2015)
Screen size: about 310,000 compounds; about 14,000 (4.5%) showed an effect of 50% or more. Effects have a minus sign here. Some of the results follow.

target: human ether-à-go-go-related gene (hERG) potassium channel (human, UniProt Q12809); experiment: primary screen, population patch clamp on CHO cells stably expressing hERG
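Note: peak tail current of the secondary pulse compared with the same well before compound.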

Chain of human ether-à-go-go-related gene (hERG) potassium channel (Q12809 whole entry, looked up): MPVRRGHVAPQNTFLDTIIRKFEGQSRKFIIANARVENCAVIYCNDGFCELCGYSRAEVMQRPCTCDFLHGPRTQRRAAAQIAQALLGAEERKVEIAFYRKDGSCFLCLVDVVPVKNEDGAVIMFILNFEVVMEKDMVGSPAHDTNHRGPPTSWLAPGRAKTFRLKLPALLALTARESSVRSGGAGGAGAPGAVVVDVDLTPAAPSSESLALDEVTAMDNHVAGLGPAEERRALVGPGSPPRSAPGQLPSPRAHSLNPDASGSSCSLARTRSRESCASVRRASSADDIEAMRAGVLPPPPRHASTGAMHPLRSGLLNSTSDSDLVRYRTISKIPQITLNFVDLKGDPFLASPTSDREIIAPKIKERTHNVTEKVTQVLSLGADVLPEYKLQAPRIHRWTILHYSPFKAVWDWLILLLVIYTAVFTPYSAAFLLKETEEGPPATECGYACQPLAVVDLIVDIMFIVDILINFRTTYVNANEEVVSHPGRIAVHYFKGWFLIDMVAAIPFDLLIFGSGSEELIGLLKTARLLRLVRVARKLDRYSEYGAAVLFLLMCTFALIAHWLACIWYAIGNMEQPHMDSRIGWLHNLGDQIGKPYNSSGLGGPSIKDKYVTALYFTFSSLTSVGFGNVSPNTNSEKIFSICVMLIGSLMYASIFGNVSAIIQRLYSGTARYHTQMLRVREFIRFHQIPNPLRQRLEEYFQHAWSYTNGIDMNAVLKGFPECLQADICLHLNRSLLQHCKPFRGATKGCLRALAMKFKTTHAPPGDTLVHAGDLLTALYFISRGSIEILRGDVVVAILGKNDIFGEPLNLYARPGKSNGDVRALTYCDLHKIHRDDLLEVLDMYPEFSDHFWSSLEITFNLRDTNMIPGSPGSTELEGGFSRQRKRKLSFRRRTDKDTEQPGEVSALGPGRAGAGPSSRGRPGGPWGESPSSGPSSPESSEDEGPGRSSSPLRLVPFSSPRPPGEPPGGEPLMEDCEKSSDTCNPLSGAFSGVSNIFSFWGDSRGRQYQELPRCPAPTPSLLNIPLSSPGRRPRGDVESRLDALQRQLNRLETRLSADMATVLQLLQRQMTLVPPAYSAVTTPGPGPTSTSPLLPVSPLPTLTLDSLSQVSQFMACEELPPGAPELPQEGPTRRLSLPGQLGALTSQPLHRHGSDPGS

SMILES	hERG current change (%, negative = inhibition) at 10uM
Cc1nn(C)cc1NC(=O)CC12CC3CC(CC(C3)C1)C2	-11.8%
C(=N\Nc1nn2cnnc2c2ccccc12)/c1ccco1	3.58%
CCOC(=O)c1ccc(NC(=O)Cn2c(C)nc3c(sc(=S)n3CC)c2=O)cc1	17.5%
CCNC(=O)OCc1cn(-c2ccccc2)nn1	23.4%
COc1ccc(CCCc2nnc(SCC(=O)Nc3ncc(C)s3)o2)cc1	-1.3%
CC(=O)c1ccc(N2CC(C)(C)C2=O)cc1	14.4%
COc1ccccc1C(=O)Nn1c(C2CCC2)nc2ccccc2c1=O	1.56%
O=C(N/N=C/c1ccc2c(c1)OCO2)C1CC1	-3.1%
CC(=O)c1sc(NS(=O)(=O)c2ccc(C)cc2)nc1-c1ccccc1	7.77%
CCn1c(SCC(=O)N2CCC(C)CC2)nc2c(c1=O)SCC2	-7.67%
COc1ccccc1-n1cc(C(=O)NCC(=O)N2CCN(c3ccccc3)CC2)c2ccccc2c1=O	-32.3%
COc1ccc(CC(=O)Nc2c3c(nn2-c2cccc(C)c2C)CS(=O)C3)cc1 (centres unmarked)	-7.27%
O=[N+]([O-])c1ccc(N2CCCCC2)nc1N1CCCCC1	-2.43%
C/C(=N\NC(=O)c1cccc([N+](=O)[O-])c1)c1cccs1	-6.95%
O=C(Cc1coc(-c2ccc(F)cc2)n1)NC1CCCCC1	7.92%
O=C(C1=C(O)C(=O)N(Cc2ccco2)C1c1cccs1)c1cccs1 (centres unmarked)	20.6%
CCC(Oc1ccccc1F)C(=O)NCCCn1ccnc1 (centres unmarked)	-7.1%
CCOC(=O)c1c(C)[nH]c(C(=O)CSc2nnc(-c3cccs3)n2Cc2ccccc2)c1C	16.3%
O=C(/C=C/c1ccc(Cl)cc1Cl)N1CCN(c2ccccc2[N+](=O)[O-])CC1	-72.7%
O=C(COC(=O)Cc1ccccc1F)NCCc1ccccc1	0.683%
CCN(CC)Cc1c(O)c(Cl)cc2c(C)c(C)c(=O)oc12	-4.74%
COc1ccccc1NC(=O)C1=C(C)NC2=C(C(=O)CCC2)C1c1ccc(C)o1 (centres unmarked)	4.8%
COc1cc2c(=O)n(CCC(=O)NCC3CCCO3)c(=O)n(CC(=O)Nc3ccc(C)c(C)c3)c2cc1OC (centres unmarked)	13.6%

SMILES	hERG current change (%, negative = inhibition) at 10uM
COc1cc(SC)ccc1C(=O)N1CCN(c2ccccc2F)CC1	-33.8%
Fc1ccc(CNC(=S)NCc2ccccc2)cc1	2.14%
CS(=O)(=O)N1CCSC1c1ccc(Br)cc1 (centres unmarked)	3.76%
COc1ccc(Nc2nnc(SCC3CCCCO3)s2)cc1 (centres unmarked)	20.6%
O=C(NC1=NCCS1)c1cc(-c2ccccc2)nn1-c1ccccc1	11.8%
Cc1ccccc1CN1CCN(Cc2cc3ccccc3o2)CC1CCO (centres unmarked)	-6.94%
COc1ccc(CNC(=O)CN(C(=O)c2csnn2)c2ccc3c(c2)OCCO3)cc1	-5.5%
Cc1nccc(-c2cccc(NC(=O)Nc3ccc(Cl)cc3)c2)n1	7.12%
Cc1ccc2c(Cl)cc(Cl)c(OCC(=O)OCC(=O)Nc3ccc(C#N)cc3)c2n1	5.19%
O=C1NC(=O)c2cc(Oc3ccc([N+](=O)[O-])cc3)ccc21	-1.52%
COC(=O)C1C(=O)C2=C(CC1C)Nc1ccccc1NC2c1ccc(C)s1 (centres unmarked)	12.8%
Cc1cc(C)c(NC(=O)CCc2c(C)noc2C)c(C)c1	9.73%
Cc1c(-c2ccccc2)sc(N)c1C(=O)N1CCOCC1	-17.1%
O=C(CN1C(=O)CCOc2ccccc21)Nc1ccc(Cl)c(S(=O)(=O)N2CCOCC2)c1	-7.44%
COc1cc(OC)cc(-c2nnc(N(C)C(=O)c3ccncc3)s2)c1	31.2%
Cc1cc(C)cc(NC(=O)CCCSc2nc3ccccc3[nH]2)c1	-2.7%
C=C(C)COc1ccc2c(C)c(CCC(=O)N3C[C@H]4C[C@@H](C3)c3cccc(=O)n3C4)c(=O)oc2c1	-60.4%
O=c1c2ccccc2nc2n1C(CSc1ccc(F)cc1)CN2 (centres unmarked)	-5.32%
COC(=O)CS(=O)(=O)c1cccc2cccnc12	16.5%
Cc1ccc(-c2c3c(nc4sc(C(N)=O)c(N)c24)CCCC3)o1	13.4%
CCOC(=O)C(=O)Nc1ccccc1C(=O)NCc1ccccc1	-27.9%
CCCCNC(=O)c1nn(-c2ccccc2OC)c(=O)c2ccccc12	-4.46%
O=C(Cn1nnc(-c2cc(C(F)(F)F)cc(C(F)(F)F)c2)n1)NNC(=S)Nc1ccc(Cl)cc1	17.8%

SMILES	hERG current change (%, negative = inhibition) at 10uM
COC(=O)c1c(NC(=O)CSc2nnnn2-c2ccccc2)sc2c1CCCC2	-6.49%
COc1ccc(N/N=C(\C#N)C(=N)N2CCCCC2)cc1	-16.3%
CC(C)CC(C(=O)Nc1cccc(O)c1)N1C(=O)c2ccccc2C1=O (centres unmarked)	-7.13%
COc1ccccc1NS(=O)(=O)c1ccc(/C=C/C(=O)O)cc1	1.72%
Cc1nc2sc(C(c3ccccc3)N3CCN(CCO)CC3)c(O)n2n1 (centres unmarked)	-10.8%
CCCCNC(=O)CCn1c(=O)c2cccn2c2ccc(F)cc21	-14.2%
O=S(=O)(Nn1cnnc1)c1ccc(F)cc1	22.9%
CC1(C)CC(=O)C2=C(C1)Nc1ccccc1NC2c1ccc2c(c1)OCO2 (centres unmarked)	2.58%
Cc1nc2c(oc3ccc(Cl)cc32)c(=O)[nH]1	-2.89%
Cc1nccn1-c1c2c(c(C#N)c3nc4ccccc4n13)CCC2	-3.86%
Cc1ccc2c(c1)c1c(c(=O)n(-c3ccccc3)c(=O)n1CC(=O)NCC1CCCO1)n2C (centres unmarked)	22.4%
COC(=O)c1nn(-c2ccccc2)c(=O)cc1O	14.1%
CC(C)CNC(=O)c1ccc(Cl)c(Cl)c1	7.1%
CC(c1ccccc1)C1C(C#N)=C(N)OC2=C1C(=O)CCC2 (centres unmarked)	-6.39%
CSCCCNC(=O)c1ccc(OC2CCN(CCc3ccccc3)CC2)cc1	-75.2%
COc1ccc(S(=O)(=O)N2CCC(C(=O)NCCC3=CCCCC3)CC2)cc1C	-56.2%
O=C(CSCc1cccc(Br)c1)N=Nc1c(O)[nH]c2ccccc12	-9.49%
O=C1C(=Cc2ccc(Br)o2)C(=O)c2ccccc21	8.44%
COc1ccccc1NS(=O)(=O)c1cccc(C(=O)N/N=C/c2c(C)nn(-c3ccccc3)c2N2CCCC2)c1	8.01%
CCOC(=O)NC1CCS(=O)(=O)C1 (centres unmarked)	5.2%
O=C1N/C(=N\S(=O)(=O)c2ccccc2)S/C1=C\c1cc([N+](=O)[O-])ccc1O	18.3%
CCc1cccc2c(C(=O)COC(=O)c3c(C)noc3C)c[nH]c12	-3.84%
CC(=O)Nc1cccc(NC(=O)c2c(-c3ccccc3)noc2C)c1	12.2%

SMILES	hERG current change (%, negative = inhibition) at 10uM
COc1ccc(CCNS(=O)(=O)c2ccc3c(c2)CCN3C(=O)CCC(=O)O)cc1OC	8.32%
C=CCSc1nnc(NC(=O)CSc2nc3ccccc3o2)s1	4.89%
CCOC(=O)C1=C(O)C(=O)N(CCCn2ccnc2)C1c1ccc(OC)cc1 (centres unmarked)	12.2%
CC(Cc1ccccc1)[n+]1cc(/N=C(\[O-])Nc2ccccc2)on1 (centres unmarked)	-17.4%
Cc1ccc(-c2nnn(CC(=O)N(c3ccc(F)cc3)C(C(=O)NC3CCCC3)c3ccco3)n2)o1 (centres unmarked)	10.7%
CCOC(=O)C1=C(C)NC(C)=C(C(=O)OC)C1c1cccc([N+](=O)[O-])c1 (centres unmarked)	-25.8%
Nc1nc(NCc2ccccc2)n(-c2ccccc2)n1	14.9%
Cc1cc(C)cc(OCC(=O)Nc2ccc(N3CCCC3)cc2)c1	11.9%
Cc1cc(N2CCOCC2)nc(SCC(=O)c2ccc(Cl)cc2)n1	-8.11%
COc1ccc(-c2cc(C(F)(F)F)nc(SCCC(=O)N3CCN4CCCC4C3)n2)cc1 (centres unmarked)	-15.8%
CC(=O)NC1C(Oc2ccc3c(C)cc(=O)oc3c2)OC(COC(C)=O)C(OC(C)=O)C1OC(C)=O (centres unmarked)	27.3%
Cc1cc(C(=O)Nc2cccc(C(=O)O)c2)c(C)o1	-4.43%
C#CCn1c(CCNC(=O)c2ccco2)nc2ccccc21	1.81%
Cc1ccc(NC(=O)CSc2nnc(CNC(=O)c3cccs3)o2)cc1	19.1%
CC1Sc2ccc(C(=O)N3CCCC(C(F)(F)F)C3)cc2NC1=O (centres unmarked)	-2.5%
CC1=Nc2cc(C(=O)NCc3ccco3)ccc2Sc2ccc(C)cc21	-23%
O=C(NCCc1ccccc1)c1cc(=O)[nH]c2ccccc12	12.6%
O=c1c2ccccc2ncn1-c1ccc(Cl)cc1Cl	-0.309%
CN1N=C(C(=O)N2CCc3c([nH]c4ccccc34)C2c2c(F)cccc2Cl)CCC1=O (centres unmarked)	-97.3%
Cc1cc(C)n2nnnc2n1	18.5%
